From PubChem BioAssay AID488969 (Vanderbilt High Throughput Screening Facility, 2010)
Over roughly 110,000 compounds, “z-score” has its median near -0.1; the highest 2% begin near 2. This is one part of the list. The source made the active and inactive calls.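 The calls were made as follows: active = z-score in the third read window above 3 or below -3; inactive = the rest.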

Target: Metabotropic glutamate receptor 8 (Rattus norvegicus) (UniProt P70579)
Assay: mGluR8 Gi/Go-coupled signaling modulation – cell-based, rat, thallium flux, HTS, primary screen (AID 488969)
Details: HEK293 rat mGluR8, GIRK (G protein-gated inwardly rectifying potassium channel) thallium flux, FluoZin2; at 10 µM; stronger effect = higher value; submaximal glutamate (EC20) added with thallium

UniProt P70579, sequence (P70579 whole entry, looked up): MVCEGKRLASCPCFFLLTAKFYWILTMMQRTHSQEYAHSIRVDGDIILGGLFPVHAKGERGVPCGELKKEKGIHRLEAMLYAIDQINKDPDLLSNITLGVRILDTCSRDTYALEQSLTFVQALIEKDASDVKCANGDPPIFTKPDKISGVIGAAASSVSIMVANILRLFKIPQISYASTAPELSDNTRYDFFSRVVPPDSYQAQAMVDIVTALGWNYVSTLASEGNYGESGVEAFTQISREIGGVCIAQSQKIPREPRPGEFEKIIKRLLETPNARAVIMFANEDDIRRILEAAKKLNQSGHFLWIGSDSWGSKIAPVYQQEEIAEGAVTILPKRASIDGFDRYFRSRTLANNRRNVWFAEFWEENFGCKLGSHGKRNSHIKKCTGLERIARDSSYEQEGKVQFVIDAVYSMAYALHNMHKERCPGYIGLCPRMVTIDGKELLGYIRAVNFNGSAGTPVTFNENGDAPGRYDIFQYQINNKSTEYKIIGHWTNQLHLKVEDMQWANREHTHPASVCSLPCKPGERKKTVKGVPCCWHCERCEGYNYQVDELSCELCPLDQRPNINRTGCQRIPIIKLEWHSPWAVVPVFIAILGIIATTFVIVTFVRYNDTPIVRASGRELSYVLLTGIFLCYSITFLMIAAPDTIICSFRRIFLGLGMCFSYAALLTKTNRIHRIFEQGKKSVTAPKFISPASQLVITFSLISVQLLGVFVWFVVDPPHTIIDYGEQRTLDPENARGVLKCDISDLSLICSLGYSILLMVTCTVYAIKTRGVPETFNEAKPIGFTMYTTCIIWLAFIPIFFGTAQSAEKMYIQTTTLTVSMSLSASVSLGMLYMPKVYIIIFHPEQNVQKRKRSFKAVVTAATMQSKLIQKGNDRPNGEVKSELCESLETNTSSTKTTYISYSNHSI

Structure (SMILES)	z-score
COc1ccc(-c2nc(-c3ccc(NC(=O)c4ccc(Br)o4)cc3)no2)cc1OC	-0.935
CC(O)c1nc2ccccc2n1Cc1ccc([N+](=O)[O-])cc1 (stereo not drawn)	-0.255
Cc1cccc(N(CC(=O)NCCC2=CCCCC2)S(C)(=O)=O)c1C	0.0571
CC(NC(=O)NC1CCCCC1)C(c1cccs1)N1CCN(c2ccccc2)CC1 (stereo not drawn)	-0.774
C=CCn1c(CSc2nc3ccccc3s2)nnc1SCC(=O)OCC	-1.77
Cc1ccnc2c(N3C(=O)C4C5C=CC(C5)C4(C)C3=O)cccc12 (stereo not drawn)	0.129
O=C(NCc1nnc(SC/C=C/c2ccccc2)o1)c1ccco1	-0.142
CNC(=O)CSc1nc2nc(C)cc(C)n2n1	0.206
CN1CCN(C(=O)c2ccc(-c3nn(C)c(=O)c4ccccc34)cc2)CC1	-0.877
CCNC(=S)NNC(=O)C1CCCCC1	-0.0378
C=CCn1c(SCCOc2ccc(OC)cc2)nnc1C(NC(=O)c1ccc(OC)cc1)C(C)C (stereo not drawn)	-0.685
FC(F)Sc1ccc(-n2cc(-c3ccccc3)[n+]3c2CCC3)cc1	-0.0431
CC(C)NC(=O)c1ccccc1NC(=O)C1CCCO1 (stereo not drawn)	-0.306
CCN(CC)C(=O)CSc1nc2ccccc2c(=O)n1CC	-0.997
Cc1cc(NC(=O)CS(=O)(=O)c2cn(Cc3ccccc3Cl)c3ccccc23)no1	0.0873
CCOC(=O)C1CCN(S(=O)(=O)c2ccc(Br)c(OCC)c2)CC1	-0.359
O=C(NCCN1CCOCC1)c1cc2cc(Cl)cc(Cl)c2oc1=O	-0.347
COc1cc(-c2nnc(SCC(=O)/C(C#N)=C(\C)N)o2)cc(OC)c1OC	0.108
Cc1nn(C(C)C(=O)NCCCc2ccccc2)c(=O)c2cc3occc3n12 (stereo not drawn)	0.103
CCC(=O)Nc1ccc(Cl)c(NC(=S)NC(=O)c2ccco2)c1	-0.0339
Nc1nnc(SCC(=O)OCc2ccc(Cl)c(Cl)c2)s1	-0.293
COc1ccc(C(N)=O)cc1N	-0.409
CCN(C(=O)CSc1nnc(NC2CCCCC2)s1)C1CCS(=O)(=O)C1 (stereo not drawn)	-0.185

Structure (SMILES)	z-score
CC1CCN(c2ccc(NC(=S)NC(=O)c3ccco3)cc2)CC1	active: 4.93
N#CC1=C(SCc2ccccc2)NC(=O)C(C#N)C12CCCC2 (stereo not drawn)	-0.595
CCc1c(C(C)S(=O)(=O)c2ccc(C)cc2)[nH]c(=O)n1-c1ccc(C)cc1 (stereo not drawn)	0.315
COC(=O)C1=C(C(=O)OC)C2(OC1c1cccc(F)c1)C(=O)c1ccccc1C2=O (stereo not drawn)	-0.142
O=c1[nH]c(Cc2ccc(F)cc2)nc2scc(-c3ccc(F)cc3)c12	-1.4
O=C(c1coc2ccc(O)c(CN3CCOCC3)c12)C1CC1	-0.1
COc1cc2nc(SCC(N)=O)n(CCC3=CCCCC3)c(=O)c2cc1OC	0.0547
Cc1cc(S(=O)(=O)Nc2ccccc2C)ccc1F	0.106
CCOc1ccc(OCC)c(C2C(C#N)=C(N)N(c3cccnc3)C3=C2C(=O)CC(C)(C)C3)c1 (stereo not drawn)	-0.418
Cc1nn(-c2ccccc2)c(C)c1C(=O)OCC(=O)N1CCN(S(=O)(=O)c2ccccc2)CC1	-0.781
Cc1ccc(S(=O)(=O)Nc2cc(C(=O)Nc3cc(C)cc(C)c3)ccc2Cl)cc1	-0.242
O=C1C2C3C=CC(C3)C2C(=O)N1CCC(=O)N1CCc2ccccc21 (stereo not drawn)	0.17
CCCCC(=O)NS(=O)(=O)c1ccc(N=NN2CCCCC2)cc1	-0.158
Cc1ccc2c(c1)cc(CN(Cc1ccc3c(c1)OCO3)C(=O)c1cnccn1)c1nnnn12	-0.0566
O=C1CCCC2=C1C(c1ccco1)Nc1ccc(C(=O)c3ccccc3)cc1N2 (stereo not drawn)	-0.471
COc1cc2c(cc1OC)CN(S(=O)(=O)c1ccc3c(c1)OCCO3)CC2	0.172
CCCCSc1nnc(-c2ccc(NC(=O)CCc3ccccc3)cc2)n1C	0.441
CC(C)(C)c1ccc(OCCC(=O)NC2=NCCS2)cc1	0.503
COc1ccccc1/C=C/C=N/NC(=O)CCn1nnc2ccccc21	-0.626
CCOC(=O)c1c(-c2ccccc2)csc1/N=C/C1C(=O)CCCC1=O	0.349
CCC(C)NC(=O)Cn1nc(C(F)(F)F)c2c1CCCC2 (stereo not drawn)	-0.266
COc1ccc(/C=C(\C#N)C(=O)NCC2CCCO2)cc1OC (stereo not drawn)	0.621
CCOC(=O)C(C)c1c(C)[nH]c(=S)[nH]c1=O (stereo not drawn)	0.0905

Structure (SMILES)	z-score
O=C(NCc1cccs1)C(Cc1ccccc1)NS(=O)(=O)c1cccs1 (stereo not drawn)	0.468
CCCc1nnc(SCC(=O)N2CCCCC2)n1CC1CCCO1 (stereo not drawn)	-0.137
CC(C)(C)c1ccc(S(=O)(=O)CCc2ccccn2)cc1	-0.00612
CCCCOc1ccc(-c2cc(C(=O)NNC(=S)NCC)c3ccccc3n2)cc1	-0.155
COCCn1c(=O)[nH]c2cc(C(=O)NCC3CCCO3)ccc2c1=O (stereo not drawn)	0.124
CCCCCc1c(O)nc(SCC(=O)O)[nH]c1=O	-0.256
C=CCNC(=O)C(C)Sc1ccc(Cl)cc1 (stereo not drawn)	0.716
CCCCC(=O)Nc1ccc(N2CCN(S(C)(=O)=O)CC2)cc1	-0.297
COC(=O)NC1CCC(NC(=O)OC)CC1 (stereo not drawn)	0.304
O=C(CNC(=O)c1ccccc1F)OCC(=O)N1CCCc2ccccc21	-0.162
C=C(C)CC1(NC(C)c2ccccc2)CCCCC1 (stereo not drawn)	0.462
CN(C(=O)CSc1nnc(Cc2ccccc2F)n1N)C1CCS(=O)(=O)C1 (stereo not drawn)	-0.192
S=c1[nH]nc(Cc2ccccc2)n1-c1ccccc1	0.938
CCCC(=O)c1ccc(N2CCN(S(=O)(=O)c3ccccc3)CC2)c(F)c1	-0.3
CCCCNC(=S)NNC(=O)c1sccc1C	-0.114
O=C(CSc1nnc(-c2ccc(O)cc2)n1Cc1ccco1)N1CCc2ccccc2C1	-1.85
COc1cc(CN2CCC(C(=O)N3CCN(c4ccccc4F)CC3)CC2)cc(OC)c1OC	-1.08
CC(=O)C1=C(c2ccc(Br)cc2)C(=O)c2ccccc2C1=O	-1.75
O=C1CN(C(=O)COC(=O)COc2ccc3c(c2)CCC3)c2ccccc2N1	0.478
CN(Cc1ccccc1)S(=O)(=O)c1ccc(NS(=O)(=O)Cc2ccccc2)cc1	-0.076
N#Cc1c(Nc2ccc(F)cc2)sc(C(=O)c2ccc(F)cc2)c1N	-0.0216
COc1cccc(Cn2nnc(C(=O)Nc3ccc(C)cc3)c2N)c1	0.294
Cc1cc(C)nc(SCC(=O)Nc2ncc(Cc3cccc(Cl)c3Cl)s2)n1	-0.305

Structure (SMILES)	z-score
Cc1ccc(Nc2ncc3c(n2)CC(c2ccco2)CC3=O)c(C)c1 (stereo not drawn)	-0.858
Cc1ccccc1NS(=O)(=O)c1cc(C(=O)N2CCc3ccccc3C2)ccc1C	-0.344
Cc1cccc(/C=C2/C(=O)/C(=C/c3ccccc3C)C3CCC2N3C)c1 (stereo not drawn)	-0.101
O=C1CN(CC(=O)Nc2ccc(Cl)cc2)CCN1	-0.0523
CC(=O)Nc1ccc(C(=S)NCc2ccco2)cc1	-0.222
O=C(NCc1ccco1)c1cc(-c2ccccc2)nc2ccccc12	-0.694
Cc1nnc(NC2=NCCC2)o1	1.53
C=CCn1c(SCC(=O)Nc2nnc(CC)s2)nnc1-c1cccnc1	-0.71
CCOC(=O)C1CCCN(Cc2sccc2C)C1 (stereo not drawn)	-0.208
CCOc1cc(C)c(C(C)C)cc1S(=O)(=O)NCc1ccccn1	-0.429
O=C(NCc1ccco1)c1cccc(S(=O)(=O)N2CCc3ccccc32)c1	-0.341
O=C1CC(N2CCN(c3nc4ccccc4s3)CC2)C(=O)N1c1cccc(F)c1 (stereo not drawn)	-0.276
O=C(NCc1ccco1)c1cc2ccccc2c(=O)o1	-0.606
Oc1cccc(/C=N/Nc2cc(N3CCOCC3)nc(N3CCOCC3)n2)c1	-0.242
CCOC(=O)/C=c1\s/c(=C\c2c(OCC)ccc3ccccc23)c(=O)n1CC(=O)NCC1CCCO1 (stereo not drawn)	0.259
CC(C)(C)SCCNC(=O)CSc1ccccc1	-0.236
CC(NC(=O)C1CCCCC1)c1ccc2c(c1)OCCO2 (stereo not drawn)	0.368
CCn1c(SCC(=O)c2cc(C)n(-c3ccc(C(=O)OC)cc3)c2C)nnc1-c1cccnc1	0.00946
O=C(CSc1ncccc1-c1nc2ccccc2[nH]1)NC1CC1	-0.0854
O=C(NCC1CCCO1)C1CCN(S(=O)(=O)c2cccnc2)CC1 (stereo not drawn)	0.103
COc1ccc(NCc2nnc(SCC(=O)NCc3ccco3)n2-c2ccccc2OC)cc1	-0.215
CCOC(=O)c1nnn(CC(=O)Nc2ccccc2OC)c1C(=O)OCC	-0.326
O=C(Nc1ccc(Cl)cc1)C1CC=CCC1C(=O)OCC(F)(F)C(F)F (stereo not drawn)	0.127

Structure (SMILES)	z-score
CCCCCCSC1=C(C#N)C(=O)NC2(CCCCC2)S1	0.941
c1ccc(Cn2c(SCc3cn4cccnc4n3)nnc2-c2ccco2)cc1	0.882
CN(C)C(=O)CSC1c2ccccc2C(=O)N1c1ccccc1 (stereo not drawn)	-0.138
CN(c1ccc(C(=O)NCCC2=CCCCC2)cc1)S(C)(=O)=O	0.45
C/C(=C\c1ccccc1)CN(C)CCN(C)C	-0.122
Cc1ccnc(NC(=O)CCC(=O)N(CC(=O)NC(C)(C)C)C2CCCC2)c1	-0.259
CC1=NN(C(C)C)C(=O)C1	-0.12
COc1ccc(C(=O)/C=C/N(C)C)cc1	-0.22
CCN(CC)CCNC(=O)C1c2ccccc2C(=O)N(C)C1c1cn(C)c2ccccc12 (stereo not drawn)	0.724
COc1ccnc(N=CNOCc2ccc(F)cc2Cl)c1C#N	0.442
CC(=O)OC(C(=O)NC1CCCCC1)c1ccncc1 (stereo not drawn)	0.0327
CN1CCN(c2ccc(NC(=O)CSc3ccccc3)cc2F)CC1	0.0495
CC(C)CCOc1ccc(C2=NNC(=O)CC2)cc1	-0.017
COC(=O)CNC(=O)c1cn(CC(C)C)c(=O)c2cc(OC)c(OC)cc12	0.67
Cc1ccnc(NC(=O)Cn2ccc([N+](=O)[O-])n2)c1	1.6
COc1ccc(N(CC(=O)NCCSc2ccccn2)S(C)(=O)=O)cc1	-0.246
O=[N+]([O-])c1cc(S(=O)(=O)N2CCCCCC2)ccc1F	-0.312
O=C(CN1C(=O)NC2(CCCc3ccccc32)C1=O)N1CCc2ccccc2C1 (stereo not drawn)	-0.467
C[C@H](NC(=O)OC(C)(C)C)C(=O)NCC1CCC(C(=O)O)CC1 (stereo partly drawn)	0.0674
COc1ccccc1/C=C/C(=O)c1ccc(NC(C)=O)cc1	-0.12
COc1cccc(CNc2ccc3c(c2)CCC3)c1	-0.0994
